According to the supplement of paper PMC9542798:

Legend:
Test in all cases: minimum inhibitory concentration
[1] = compound: CC1(C)S[C@@H]2[C@H](NC(=O)[C@H](N)c3ccccc3)C(=O)N2[C@H]1C(=O)O [Ampicillin]
Procedure: (§1)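 Broth microdilution MIC per ISO 10932 on precoated VetMIC Lact-1 plates (tylosin, vancomycin and ampicillin plates prepared manually) against lactic acid bacteria and bifidobacteria isolates. Plates were read visually after 48 h anaerobic incubation (bifidobacteria 72 h; enterococci and staphylococci 24 h aerobic) at species-specific temperatures of 30 or 37 °C. Values prefixed with < or > are outside the tested dilution range.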

[2] = compound: CCC[C@@H]1C[C@@H](C(=O)N[C@@H]([C@H]2O[C@H](SC)[C@H](O)[C@@H](O)[C@H]2O)[C@H](C)Cl)N(C)C1 [Clindamycin]
Procedure: as §1

[3] = compound: CC[C@H]1OC(=O)[C@H](C)[C@@H](O[C@H]2C[C@@](C)(OC)[C@@H](O)[C@H](C)O2)[C@H](C)[C@@H](O[C@@H]2O[C@H](C)C[C@H](N(C)C)[C@H]2O)[C@](C)(O)C[C@@H](C)C(=O)[C@H](C)[C@@H](O)[C@]1(C)O [Erythromycin]
Procedure: as §1

[4] = compound: CN(C)[C@@H]1C(O)=C(C(N)=O)C(=O)[C@@]2(O)C(O)=C3C(=O)c4c(O)cccc4[C@@](C)(O)[C@H]3C[C@@H]12 [Tetracycline]
Procedure: as §1

[5] = compound: CNC(C)C1CCC(N)C(OC2C(N)CC(N)C(OC3OCC(C)(O)C(NC)C3O)C2O)O1 [Gentamicin]
Procedure: as §1

[6] = compound: CN[C@@H]1[C@H](O[C@H]2[C@H](O[C@H]3[C@H](O)[C@@H](O)[C@H](N=C(N)N)[C@@H](O)[C@@H]3N=C(N)N)O[C@@H](C)[C@]2(O)C=O)O[C@@H](CO)[C@H](O)[C@H]1O [Streptomycin]
Procedure: as §1

[7] = compound: NC[C@@H]1O[C@H](O[C@H]2[C@@H](O)[C@H](O[C@@H]3[C@@H](O)[C@H](N)C[C@H](N)[C@H]3O[C@H]3O[C@H](CN)[C@@H](O)[C@H](O)[C@H]3N)O[C@@H]2CO)[C@H](N)[C@@H](O)[C@@H]1O [Neomycin]
Procedure: as §1

[8] = compound: NC[C@H]1O[C@H](O[C@H]2[C@H](O)[C@@H](O[C@H]3O[C@H](CO)[C@@H](O)[C@H](N)[C@H]3O)[C@H](N)C[C@@H]2N)[C@H](O)[C@@H](O)[C@@H]1O [Kanamycin]
Procedure: as §1

[9] = compound: O=C(N[C@H](CO)[C@H](O)c1ccc([N+](=O)[O-])cc1)C(Cl)Cl [Chloramphenicol]
Procedure: as §1
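Also: isolates derived from commercial starter, protective, probiotic or feed-additive cultures, from fermented products, from human gut mucosa or feces, and from human milk or colostrum.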

Row | Test System | minimum inhibitory concentration [1] | minimum inhibitory concentration [2] | minimum inhibitory concentration [3] | minimum inhibitory concentration [4] | minimum inhibitory concentration [5] | minimum inhibitory concentration [6] | minimum inhibitory concentration [7] | minimum inhibitory concentration [8] | minimum inhibitory concentration [9]
1 | Lacticaseibacillus paracasei IM1289 (strain group: non-starter strains) | 1 µg/mL | 0.06 µg/mL | 0.12 µg/mL | 1 µg/mL | 2 µg/mL | 16 µg/mL | 4 µg/mL | 64 µg/mL | 4 µg/mL
2 | Lacticaseibacillus paracasei IM1290 (strain group: non-starter strains) | 2 µg/mL | 0.25 µg/mL | 0.25 µg/mL | 2 µg/mL | 16 µg/mL | 32 µg/mL | 32 µg/mL | 128 µg/mL | 8 µg/mL
3 | Lacticaseibacillus paracasei IM1298 (strain group: non-starter strains) | 4 µg/mL | 0.25 µg/mL | 0.25 µg/mL | 1 µg/mL | 4 µg/mL | 16 µg/mL | 8 µg/mL | 64 µg/mL | 8 µg/mL
4 | Lacticaseibacillus paracasei IM1352 (strain group: non-starter strains) | 4 µg/mL | 0.25 µg/mL | 0.5 µg/mL | 1 µg/mL | 4 µg/mL | 32 µg/mL | 8 µg/mL | 64 µg/mL | 4 µg/mL
5 | Lacticaseibacillus paracasei IM1354 (strain group: non-starter strains) | 2 µg/mL | 0.25 µg/mL | 0.25 µg/mL | 1 µg/mL | 4 µg/mL | 16 µg/mL | 8 µg/mL | 64 µg/mL | 4 µg/mL
6 | Lacticaseibacillus paracasei IM1355 (strain group: non-starter strains) | 1 µg/mL | 1 µg/mL | 0.5 µg/mL | 2 µg/mL | 4 µg/mL | 16 µg/mL | 8 µg/mL | 128 µg/mL | 8 µg/mL
7 | Lacticaseibacillus paracasei IM1356 (strain group: non-starter strains) | 2 µg/mL | 0.25 µg/mL | 0.5 µg/mL | 1 µg/mL | 4 µg/mL | 32 µg/mL | 8 µg/mL | 64 µg/mL | 4 µg/mL
8 | Lacticaseibacillus paracasei IM1391 (strain group: probiotic strains) | 2 µg/mL | 0.12 µg/mL | 0.25 µg/mL | 2 µg/mL | 2 µg/mL | 16 µg/mL | 4 µg/mL | 32 µg/mL | 8 µg/mL
9 | Lacticaseibacillus paracasei IM1395 (strain group: probiotic strains) | 2 µg/mL | 0.12 µg/mL | 0.25 µg/mL | 2 µg/mL | 4 µg/mL | 16 µg/mL | 4 µg/mL | 64 µg/mL | 8 µg/mL
10 | Lacticaseibacillus rhamnosus IM654 (strain group: human intestinal mucosa or faeces) | 1 µg/mL | 1 µg/mL | 0.25 µg/mL | 1 µg/mL | 8 µg/mL | 16 µg/mL | 64 µg/mL | 128 µg/mL | 8 µg/mL
11 | Lacticaseibacillus rhamnosus IM660 (strain group: probiotic strains) | 2 µg/mL | 1 µg/mL | 0.5 µg/mL | 1 µg/mL | 2 µg/mL | 8 µg/mL | 4 µg/mL | 32 µg/mL | 8 µg/mL
12 | Lacticaseibacillus rhamnosus IM685 (strain group: human intestinal mucosa or faeces) | > 16 µg/mL | 1 µg/mL | 0.25 µg/mL | 1 µg/mL | 4 µg/mL | 32 µg/mL | 16 µg/mL | 64 µg/mL | 8 µg/mL
13 | Lacticaseibacillus rhamnosus IM700 (strain group: human intestinal mucosa or faeces) | 1 µg/mL | 1 µg/mL | 0.25 µg/mL | 1 µg/mL | 8 µg/mL | 16 µg/mL | 32 µg/mL | 64 µg/mL | 4 µg/mL
14 | Lacticaseibacillus rhamnosus IM817 (strain group: human milk or colostrum) | 2 µg/mL | 1 µg/mL | 0.25 µg/mL | 2 µg/mL | 8 µg/mL | 16 µg/mL | 8 µg/mL | 64 µg/mL | 8 µg/mL
15 | Lacticaseibacillus rhamnosus IM860 (strain group: human milk or colostrum) | 2 µg/mL | 1 µg/mL | 0.25 µg/mL | 1 µg/mL | 4 µg/mL | 16 µg/mL | 4 µg/mL | 64 µg/mL | 8 µg/mL
16 | Lacticaseibacillus rhamnosus IM924 (strain group: human milk or colostrum) | 4 µg/mL | 1 µg/mL | 0.25 µg/mL | 1 µg/mL | 4 µg/mL | 16 µg/mL | 8 µg/mL | 64 µg/mL | 4 µg/mL

Row | Test System | minimum inhibitory concentration [1] | minimum inhibitory concentration [2] | minimum inhibitory concentration [3] | minimum inhibitory concentration [4] | minimum inhibitory concentration [5] | minimum inhibitory concentration [6] | minimum inhibitory concentration [7] | minimum inhibitory concentration [8] | minimum inhibitory concentration [9]
17 | Lacticaseibacillus rhamnosus IM1072 (strain group: non-starter strains) | 1 µg/mL | 0.5 µg/mL | 0.5 µg/mL | 16 µg/mL | 4 µg/mL | 32 µg/mL | 4 µg/mL | 64 µg/mL | 8 µg/mL
18 | Lacticaseibacillus rhamnosus IM1101 (strain group: non-starter strains) | 2 µg/mL | 1 µg/mL | 0.25 µg/mL | 1 µg/mL | 2 µg/mL | 16 µg/mL | 4 µg/mL | 64 µg/mL | 8 µg/mL
19 | Lacticaseibacillus rhamnosus IM1119 (strain group: non-starter strains) | 2 µg/mL | 1 µg/mL | 0.25 µg/mL | 1 µg/mL | 4 µg/mL | 8 µg/mL | 8 µg/mL | 64 µg/mL | 8 µg/mL
20 | Lacticaseibacillus rhamnosus IM1124 (strain group: non-starter strains) | 2 µg/mL | 1 µg/mL | 0.25 µg/mL | 1 µg/mL | 2 µg/mL | 2 µg/mL | 8 µg/mL | 64 µg/mL | 8 µg/mL
21 | Lacticaseibacillus rhamnosus IM1145 (strain group: non-starter strains) | 4 µg/mL | 1 µg/mL | 0.25 µg/mL | 1 µg/mL | 2 µg/mL | 8 µg/mL | 4 µg/mL | 64 µg/mL | 16 µg/mL
22 | Lacticaseibacillus rhamnosus IM1284 (strain group: non-starter strains) | 1 µg/mL | 1 µg/mL | 0.25 µg/mL | 1 µg/mL | 2 µg/mL | 2 µg/mL | 8 µg/mL | 64 µg/mL | 4 µg/mL
23 | Lacticaseibacillus rhamnosus IM1287 (strain group: non-starter strains) | 1 µg/mL | 0.5 µg/mL | 0.25 µg/mL | 1 µg/mL | 4 µg/mL | 8 µg/mL | 16 µg/mL | 64 µg/mL | 4 µg/mL
24 | Lacticaseibacillus rhamnosus IM1292 (strain group: non-starter strains) | 1 µg/mL | 1 µg/mL | 0.25 µg/mL | 1 µg/mL | 4 µg/mL | 8 µg/mL | 8 µg/mL | 64 µg/mL | 8 µg/mL
25 | Lacticaseibacillus rhamnosus/paracasei/casei IM855 (strain group: human milk or colostrum) | 0.5 µg/mL | 0.06 µg/mL | 0.25 µg/mL | 8 µg/mL | 4 µg/mL | 64 µg/mL | 4 µg/mL | 128 µg/mL | 8 µg/mL
26 | Lactiplantibacillus paraplantarum IM1332 (strain group: non-starter strains) | 1 µg/mL | 8 µg/mL | 1 µg/mL | 16 µg/mL | 2 µg/mL | 32 µg/mL | 1 µg/mL | 32 µg/mL | 8 µg/mL
27 | Lactiplantibacillus paraplantarum IM1346 (strain group: non-starter strains) | 0.25 µg/mL | 2 µg/mL | 1 µg/mL | 8 µg/mL | 1 µg/mL | 16 µg/mL | 2 µg/mL | 4 µg/mL | 4 µg/mL
28 | Lactiplantibacillus paraplantarum IM1364 (strain group: non-starter strains) | 0.5 µg/mL | 8 µg/mL | 1 µg/mL | 16 µg/mL | 2 µg/mL | 32 µg/mL | 2 µg/mL | 128 µg/mL | 8 µg/mL
29 | Lactiplantibacillus plantarum IM112 (strain group: feed additives) | 0.5 µg/mL | 4 µg/mL | 0.5 µg/mL | 16 µg/mL | 2 µg/mL | 32 µg/mL | 4 µg/mL | 64 µg/mL | 4 µg/mL
30 | Lactiplantibacillus plantarum IM563 (strain group: probiotic strains) | 0.5 µg/mL | 4 µg/mL | 1 µg/mL | 8 µg/mL | 8 µg/mL | 64 µg/mL | 8 µg/mL | 128 µg/mL | 4 µg/mL
31 | Lactiplantibacillus plantarum IM659 (strain group: probiotic strains) | 0.5 µg/mL | 16 µg/mL | 1 µg/mL | 16 µg/mL | 8 µg/mL | 64 µg/mL | 8 µg/mL | 128 µg/mL | 8 µg/mL
32 | Lactiplantibacillus plantarum IM697 (strain group: human intestinal mucosa or faeces) | 0.5 µg/mL | 2 µg/mL | 0.5 µg/mL | 32 µg/mL | 4 µg/mL | 64 µg/mL | 8 µg/mL | 256 µg/mL | 8 µg/mL
